From patent publication US20050037402A1, “Device and process for direct quantitative in vitro determination of a substance that is contained in a sample” (priority 2003, published 2005)

What was measured:
[1] = Inhibition-ELISA for binding of the unconjugated dye by selected HuCAL GOLD Fab fragments
Description: The purified and concentrated phagemids of the HuCAL GOLD antibody library were used in a standard selection process. As antigens, BSA- or transferrin-coupled ZK203468 were used alternately. The antigens were taken up in PBS and applied at concentrations of 50 μg/ml on Maxisorp™ microtiter plates F96 (Nunc). The maxisorp plates were incubated overnight at 4° C. (“coating”). After the maxisorp plates were blocked with 5% milk powder in PBS, about 2E+13 HuCAL GOLD phages were added to the antigen-loaded, blocked-off spots and incubated there overnight or for two hours at room temperature. After several washing steps, which became more stringent with progressive selection rounds, bonded phages were eluted with 20 mmol of DTT or 100 μmol of unconjugated ZK203468. Altogether, three successive selection rounds were carried out, whereby the phage amplification was carried out between the selection rounds, as described above.
Several thousand clones were isolated after the selection and sub-cloning and tested by means of ELISA in 384-well format for specific detection of the antigens ZK203468-BSA and—transferrin used in panning. Clones identified in this connection were studied in an inhibition-ELISA for efficient binding of the unconjugated dye.

[2] = Photophysical characterization of dye-antibody complexes (spectral shifts, fluorescence quantum yields); type: physicochemical; conditions: for Absorption Maximum (nm) / Fluorescence Maximum (nm) / Fluorescence Quantum Yield (%): 1 μmol/l dye, 2.4 μmol/l antibody in PBS; for Absorption Maximum (nm) / Fluorescence Maximum (nm): 2 hours at room temperature; for Fluorescence Quantum Yield (%): relative to indocyanine green; for Absorption Shift (nm) / Fluorescence Shift (nm): relative to the dye without antibodies in PBS (1 μmol/l)
Description: Dye-antibody complexes based on antibodies with binding to the indotricarbocyanine dye trisodium-3,3-dimethyl-2-{4-methyl-7-[3,3-dimethyl-5-sulfonato-1-(2-sulfonatoethyl)-3H-indolium-2-yl]hepta-2,4,6-trien-1-ylidene}-1-(2-sulfonatoethyl)-2,3-dihydro-1H-indole-5-sulfonate, inner salt, were examined (see Example 1). Solutions of the concentration of 1 μmol/l of the above-mentioned dye and 2.4 μmol/l of the respective antibody in PBS were produced and incubated for 2 hours at room temperature. The absorption maxima were determined with a spectral photometer (Perkin-Elmer, Lambda2). The fluorescence maxima and fluorescence quantum yields were determined with a SPEX fluorolog (wavelength-dependent sensitivity calibrated by lamp and detector) relative to indocyanine green (Q=0.13 in DMSO, J Chem Eng Data 1977, 22, 379, Bioconjugate Chem 2001, 12, 44). From the absorption and fluorescence maxima, the spectral shifts were calculated relative to the maxima of a solution of the above-mentioned dye without antibodies in PBS (1 μmol/l) (absorption max. 754 nm, fluorescence max. 783 nm, fluorescence quantum yield 10%).

B1: MOR02977: HuCAL GOLD Fab fragment binding dye ZK203468; protein SEQ-ID NO: 9 (VH-CH) and 10 (VL-CL) (antibody)
heavy: QVQLVQSGAEVKKPGSSVKVSCKASGGTFSNYAINWVRQAPGQGLEWMGNIEPYFGTANYAQKFQGRVTITADESTSTAYMELSSLRSEDTAVYYCARYFMSYKHLSDYWGQGTLVTVSSASTKGPSVFPLAPSSKSTSGGTAALGCLVKDYFPEPVTVSWNSGALTSGVHTFPAVLQSSGLYSLSSVVTVPSSSLGTQTYICNVNHKPSNTKVDKKVEPKSEFEQKLISEEDLNGAPWSHPQFEK
light: DIALTQPASVSGSPGQSITISCTGTSSDVGSNNYVSWYQQHPGKAPKLMIYGGSNRPSGVSNRFSGSKSGNTASLTISGLQAEDEADYYCQSWTTRPLNRVFGGGTKLTVLGQPKAAPSVTLFPPSSEELQANKATLVCLISDFYPGAVTVAWKADSSPVKAGVETTTPSKQSNNKYAASSYLSLTPEQWKSHRSYSCQVTHEGSTVEKTVAPTEA
modifications: Fab fragment of variable heavy chain; Fab fragment of variable light chain
binding to the non-conjugated dye ZK203468 [1]: bind efficiently
Absorption Maximum (nm) [2]: 773 nm
Fluorescence Maximum (nm) [2]: 788 nm
Fluorescence Quantum Yield (%) [2]: 24.5%
Absorption Shift (nm) [2]: 19 nm
Fluorescence Shift (nm) [2]: 5 nm

B2: MOR02628: HuCAL GOLD Fab fragment binding dye ZK203468; protein SEQ-ID NO: 1 (VH-CH) and 2 (VL-CL) (antibody)
heavy: QVQLVQSGAEVKKPGSSVKVSCKASGGTFNSYAISWVRQAPGQGLEWMGGIHPYFGTANYAQKFQGRVTITADESTSTAYMELSSLRSEDTAVYYCARRWRYRWGFDIWGQGTLVTVSSASTKGPSVFPLAPSSKSTSGGTAALGCLVKDYFPEPVTVSWNSGALTSGVHTFPAVLQSSGLYSLSSVVTVPSSSLGTQTYICNVNHKPSNTKVDKKVEPKSEFEQKLISEEDLNGAPWSHPQFEK
light: DIVLTQPPSVSGAPGQRVTISCSGSSSNIGSYYVYWYQQLPGTAPKLLIYGNSQRPSGVPDRFSGSKSGTSASLAITGLQSEDEADYYCSSWDSSFSWVFGGGTKLTVLGQPKAAPSVTLFPPSSEELQANKATLVCLISDFYPGAVTVAWKADSSPVKAGVETTTPSKQSNNKYAASSYLSLTPEQWKSHRSYSCQVTHEGSTVEKTVAPTEA
modifications: Fab fragment of variable heavy chain; Fab fragment of variable light chain
binding to the non-conjugated dye ZK203468 [1]: bind efficiently
Absorption Maximum (nm) [2]: 768 nm
Fluorescence Maximum (nm) [2]: 795 nm
Fluorescence Quantum Yield (%) [2]: 8.1%
Absorption Shift (nm) [2]: 14 nm
Fluorescence Shift (nm) [2]: 12 nm
